# Test results as given in ChEMBL document CHEMBL4888484, “Replenishing the malaria drug discovery pipeline: Screening and hit evaluation of the MMV Hit Generation Library 1 (HGL1) against asexual blood stage Plasmodium falciparum ,using a nano luciferase reporter read-out” (2022).
# Among all 150,000 compounds or so, about 540 (0.36%) showed an effect of 50% or more. The list shows a part of the results.
# Test system: Plasmodium falciparum
# Assay: Primary screen in NF54 nanoGlo assay, in single point, at 2uM, 72h; a lower Z score goes with more inhibition
# Assay type: functional, Erythrocyte
# Conditions: timepoint 72 hour
Structure (SMILES),% Inhibition [%],Z score
C[C@@H]1CN(c2nc(C(F)F)nc3ccc(F)cc23)C[C@H](C)N1,-4,0.64
Cc1occc1C(=O)N[C@@H](C)Cn1cccn1,4,-0.43
O=C(NS(=O)(=O)c1cccc2nsnc12)C1CCC2CC2C1 (stereo not given),-10,1.49
O=C(CC1CCCC1)N[C@H]1CC(=O)N(Cc2cccc(F)c2)C1,-5,0.46
c1ccc(-c2nnc(COc3ccc4oc5ccccc5c4c3)o2)cc1,-7,0.93
CCCCNC(=O)c1cc(-c2ccccc2)n2nc(-c3ccccc3)cc2n1,-1,0.22
Cc1cc(C)nc(-c2ccc(C(=O)NCCN3CCCC[C@@H]3CO)cc2)n1,-8,1.16
O=S(=O)(Nc1cc(S(=O)(=O)N2CCOCC2)ccc1N1CCCC1)c1ccc(Cl)c(C(F)(F)F)c1,-3,0.29
CNc1nc(N2CCCn3nc(CN(C)Cc4ccon4)cc3C2)ncc1F,-2,0.26
COc1ccc2nc(C)c(C(=O)N3CC[C@H]3C(F)(F)F)n2n1,-15,1.88
C[C@H](Nc1nc(N2CCCCC2)nc2ccccc12)c1ccccc1,40,-5.78
OC[C@@H]1O[C@H](CN(Cc2ccc(F)cc2)Cc2ccc(F)cc2)[C@H](N2CCCC2)[C@@H]1O,17,-2.59
O=C(COCC(F)(F)F)N1C[C@H]2CCCC[C@H]21,0,0.04
Cc1ccc(-c2c(C)noc2C)cc1S(=O)(=O)N1CCCc2ccccc21,-3,0.41
COCCn1nc([C@H]2CCCN(C(=O)C3(c4ccccc4)CCOCC3)C2)n(C2CC2)c1=O,5,-0.55
C#CC[C@H](C)NCc1csc(C(C)(C)C)n1,-11,1.66
NC(=O)CN(CCc1nc2ccccc2c(=O)[nH]1)C1CCCC1,-7,1.27
CC(C)c1ccc(C#N)c(NC[C@@H](CO)C(C)C)n1,-3,0.37
CCCNC(=O)NC(=O)COc1cc(Cl)ccc1C(N)=O,-21,1.9
COC(=O)NCC(=O)NCc1cc2c(nc1OC)CN(C1CCCC1)C2=O,-11,1.09
Cc1nc2ccccn2c1-c1nnc(N2CCC[C@H]2C(C)C)n1C,-6,1.16
CC(C)(c1nc(-c2c[nH]c3ccccc23)n[nH]1)N1CCOCC1,-7,0.66

Structure (SMILES),% Inhibition [%],Z score
Cc1cc(=O)c(C(=O)Nc2ccccc2Cn2ccnc2C)cn1C,-12,1.33
CN1CCN(Cc2cc3ccc(F)cc3nc2-c2cccc(Cl)c2)CC1,-9,1
CCc1nccn1CC(=O)Nc1cc(C)nn1CCC(C)C,-5,0.67
Cc1ccc2nc(-c3ccccc3F)c(NC(=O)Nc3ccc(F)cc3F)n2c1,21,-3.43
CC(=O)NCCNC(=O)Nc1cc(Cl)c(Cl)cc1F,1,-0.14
CC(C)(C)N(CC(=O)N(Cc1ccccc1)Cc1cccs1)S(=O)(=O)c1ccccc1,-4,0.78
Cn1cncc1C(=O)N1CC(Cc2cccc(Br)c2)C1,10,-1.33
Cn1c(CN2CC[C@H](NC(=O)c3ccccn3)[C@@H](O)C2)nc2ccccc21,-13,1.2
O=C1c2ccc(Br)cc2C(=O)N1Cc1nnc(C2CC2)o1,-17,1.83
O=C(Oc1ccc(OC(=O)N2CCOCC2)cc1)c1ccccc1,-6,1.11
Cn1cc(CCc2nc(C3CCCC3)nn2CC(F)(F)F)cn1,2,-0.26
C=C1C(C(=O)Nc2ccc3c(c2)OCCO3)[C@H]1C(=O)Nc1ccc2c(c1)OCCO2 (stereo not given in full),29,-2.64
N#CCN1CCOc2ccccc2C1=O,-9,0.99
CC1CC(N2CCCC(n3cnc4ccccc43)C2)CN1C (stereo not given),-5,0.43
Cn1ccnc1[C@H]1OCC[C@@H]1NC(=O)NC(C1CCCCC1)C(F)(F)F (stereo not given in full),-2,0.29
Fc1ccc(CN(Cc2nc3cc(F)ccc3o2)C2CCOCC2)cc1,-6,0.58
COc1ncc(-c2cccc(-c3cc[nH]n3)c2)c(OC)n1,-6,0.85
Cc1cc(S(=O)(=O)N[C@@H](C)c2ncnn2C)c(C)s1,-21,2.78
CC(C)NC(=O)Nc1ccc(N(C)C)c(CN(Cc2ccco2)C(=O)C(C)(C)C)c1,-15,1.61
CC[C@@H](c1cccc(OC)c1)N(C)Cc1n[nH]cc1C,-7,0.92
Cc1cccc(C(=O)NCCNc2cc(-n3cnc(C)c3C)ncn2)c1,-20,1.77
c1ccc(CNCc2ccc(O[C@H]3CCOC3)cc2)nc1,-8,1.19

Structure (SMILES),% Inhibition [%],Z score
Cc1noc(C)c1CC(=O)N1CC[C@@H](c2ccccc2Cl)S(=O)(=O)CC1,3,-0.46
CCOc1ccc(NC(=O)CCC(=O)N2CC(=O)NC(=O)C2)cc1,-15,1.92
CC(C)(C)Oc1ccncc1NC(=O)CS(=O)(=O)C1CCCC1,-17,3.01
O=C(c1ccccc1)[C@@H]1CCCN1S(=O)(=O)N1CCCCC1,0,-0.07
C/C=C(\C)CN1CC[C@H](CNC(=O)CC2CC2)C1,0,0.02
CC1CN(c2ccnc(C(=O)Nc3ccnn3C(C)C)c2)CC(C)O1 (stereo not given),-1,0.09
COCc1ncc(C)n1C[C@H]1CCCN(C(=O)Nc2ccc(C)c(C)c2)C1,-8,0.98
COc1ccc(-c2n[nH]c(=O)c3c2CCCC3)cc1S(=O)(=O)N1CCCCCC1,-12,1.36
CCCC(C#N)NC(=O)C1CNC(=O)N1 (stereo not given),-7,0.9
C1CCC(n2nnnc2C2CCOCC2)C1,7,-0.95
Cc1cccc(CNC(=O)N(CCO)CCN(C)C)c1,-23,2.3
O[C@@H](CNCc1ccsc1C(F)(F)F)c1cc(Cl)c2c(c1)OCCO2,22,-4.11
Cc1nnc2ccc(-c3noc(-c4ccccc4)n3)cn12,-7,1.33
COc1ccc(CN[C@H]2CCOC(C)(C)C2)cc1OCc1cccnc1,-12,1.7
Cc1ccc(S(=O)(=O)C2(C(=O)NCc3ccccn3)CCCC2)cc1C,7,-1.3
O=C(c1ccc2c(c1)OCO2)N1CC[C@@]2(CCCN(CC3CCC3)C2=O)C1,-12,2.15
CCCc1nnc(C(=O)N(C)Cc2cnccn2)o1,3,-0.5
O=C(NCc1ccc2c(c1)OCO2)c1ccc(-c2cnc(Oc3ccc(F)cc3)nc2)cc1,11,-1.7
CN(C)CCCNc1nc(N2CCCC2)c2c(c1C#N)CCN(C)C2,39,-1.31
CC1COC(c2ccccc2)C(C)N1CC(=O)NCc1ccccn1 (stereo not given),-14,2.04
CC[C@@H](C(=O)N1CCC(N2CCOC2=O)CC1)n1cccn1,-5,0.86
Cc1cc(-c2nc(Cn3cncn3)nn2CC2CCCCC2)nc(C)n1,7,-1.2

Structure (SMILES),% Inhibition [%],Z score
O=C(c1cccn1C1CCCC1)N1CCOCC(F)(F)C1,0,-0.05
CN(C)[C@H]1[C@H](Nc2ccnc3ccccc23)[C@@H]2CCO[C@@H]21,12,-1.1
COCCN(CCOC)c1ncnc2c1CCC2,-11,1.16
CN1CC[C@H]2CC[C@@H](C1)N2c1ccnc(C(=O)NCc2cccnc2)c1,-10,2.17
CCN(CC)C(=O)c1cnc2nc(C)ccc2c1Nc1cccc(OC(F)(F)F)c1,-1,0.15
O=C(Nc1cc(NC(=O)c2cccc3ccccc23)c(OCC(F)(F)F)cc1OCC(F)(F)F)c1cccc2ccccc12,-9,1.45
C#CCCC1(CCC(=O)N2CC(C)(C)[C@H]2c2cccnc2)N=N1,-16,1.98
CCOCC(=O)N1CCC(C(=O)N2CC(c3nccs3)C2)CC1,-13,1.97
CNC[C@H](C)CNC(=O)Cc1ccc(F)c(Br)c1,-9,1.03
CN1CCN(c2nc3c(c(Oc4cccc(F)c4)n2)CN(S(=O)(=O)c2cccc(Cl)c2)CC3)CC1,-5,0.66
C#CCNC(=O)CNC1(C(=O)OCC)CCCCC1,-1,0.12
O=C(NC1CC1)N(CC1CC1)C1CCCCC1,12,-1.53
O=C(NCCCO)NC1CCCCC1OC1CCCC1 (stereo not given),2,-0.21
CC[C@H](NC1CCN(Cc2ccccc2)CC1)c1ncccc1C,4,-0.53
Cc1nn(C(C)C)c(C)c1C(=O)NCc1n[nH]c(N)n1,-10,1.89
Cc1nc(C)n(C[C@H]2CCCCN2Cc2noc(C3CC3)n2)n1,-20,3.82
O=C(O[C@@H](C(=O)Nc1ccc(Cl)cc1C(F)(F)F)c1ccccc1)c1ccc(S(=O)(=O)N2CCCCC2)cc1,-3,0.49
O=C(C[C@H]1CCCCN(Cc2ccccc2)C1=O)N1CCCC1,-11,2.19
CCCc1nnsc1C(=O)N1CCC[C@H](CNC(=O)c2cccs2)C1,-11,2.11
